Screen size: about 310,000 compounds; about 2,200 (0.71%) showed an effect of 50% or more. Effects have a minus sign here. This is one part of the list.
The compounds below were run against human ether-à-go-go-related gene (hERG) potassium channel (human, UniProt Q12809) (assay: primary screen, population patch clamp on CHO cells stably expressing hERG).
human ether-à-go-go-related gene (hERG) potassium channel, sequence (Q12809 whole entry, looked up): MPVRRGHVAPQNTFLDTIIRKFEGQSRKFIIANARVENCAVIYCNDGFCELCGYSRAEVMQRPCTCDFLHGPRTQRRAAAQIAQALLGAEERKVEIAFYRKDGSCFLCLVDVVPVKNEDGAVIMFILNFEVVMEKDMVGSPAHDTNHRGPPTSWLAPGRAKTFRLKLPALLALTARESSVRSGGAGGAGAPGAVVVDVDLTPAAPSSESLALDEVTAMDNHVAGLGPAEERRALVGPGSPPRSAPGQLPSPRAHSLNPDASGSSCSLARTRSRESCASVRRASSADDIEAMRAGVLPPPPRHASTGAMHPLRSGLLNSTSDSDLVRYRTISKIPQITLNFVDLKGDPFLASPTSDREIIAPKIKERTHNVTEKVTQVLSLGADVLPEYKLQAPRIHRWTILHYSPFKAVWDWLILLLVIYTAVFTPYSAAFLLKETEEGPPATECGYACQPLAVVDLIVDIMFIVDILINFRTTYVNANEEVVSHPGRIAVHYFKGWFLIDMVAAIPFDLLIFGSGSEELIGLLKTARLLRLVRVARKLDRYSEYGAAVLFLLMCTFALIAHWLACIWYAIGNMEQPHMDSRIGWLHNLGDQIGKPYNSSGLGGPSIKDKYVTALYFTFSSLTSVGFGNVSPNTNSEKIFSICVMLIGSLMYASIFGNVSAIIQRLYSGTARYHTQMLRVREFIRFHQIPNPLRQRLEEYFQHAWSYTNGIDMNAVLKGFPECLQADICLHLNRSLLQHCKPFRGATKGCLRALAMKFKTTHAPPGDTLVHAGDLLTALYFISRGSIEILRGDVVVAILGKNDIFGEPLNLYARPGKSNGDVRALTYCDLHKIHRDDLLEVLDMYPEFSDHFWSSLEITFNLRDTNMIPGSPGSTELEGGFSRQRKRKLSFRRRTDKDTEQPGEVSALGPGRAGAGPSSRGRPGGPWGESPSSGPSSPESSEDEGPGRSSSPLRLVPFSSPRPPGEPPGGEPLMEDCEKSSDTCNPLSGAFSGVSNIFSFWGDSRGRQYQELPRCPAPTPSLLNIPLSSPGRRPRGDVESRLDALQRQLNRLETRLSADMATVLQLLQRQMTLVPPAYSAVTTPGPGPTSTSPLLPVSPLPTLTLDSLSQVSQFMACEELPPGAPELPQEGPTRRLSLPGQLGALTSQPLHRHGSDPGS

SMILES	hERG current change (%, negative = inhibition) at 1uM [%]
Oc1[nH]c2ccccc2c1/C=N/N1CCCCC1	17.5
Cc1cc(C)n2nc(S(=O)(=O)N(C)Cc3ccccc3)nc2n1	-5.36
COC(=O)c1cc(NS(=O)(=O)c2ccc(N3CCC(C)CC3)c([N+](=O)[O-])c2)cc(C(=O)OC)c1	8.4
CC(=O)NC(Cc1ccccc1)C(=O)N1CCN(C(=O)c2ccco2)CC1 (centres unmarked)	5.18
COc1ccc(OCCSCc2nnc(NC(=O)Nc3ccc(Cl)cc3)s2)cc1	9.02
Cc1sc(C(C2C(=O)CC(C)(C)CC2=O)C2C(=O)CC(C)(C)CC2=O)cc1[N+](=O)[O-]	16
Cc1[nH]nc(Nc2ccc(O)cc2)c1[N+](=O)[O-]	8.52
CCN(CC)CCCN(C)C(=O)Cn1nc(Cc2ccncc2)c2ccccc2c1=O	12.2
O=C(CSc1nnnn1CCCO)Nc1ccc2c(c1)OCO2	13.9
Cc1cc(C)cc(-n2ncc3c2CCCC3NC(=O)CCCn2cncn2)c1 (centres unmarked)	5.09
CC1CCc2sc(NC(=O)C3CC(Cl)=CCC3C(=O)O)c(C#N)c2C1 (centres unmarked)	14.9
CC(=O)c1cc(C#N)c(Oc2cc(C)cc(C)c2)nc1C	5.82
COc1ccc(N2CCN(S(=O)(=O)CCNC(=O)COc3ccccc3OC)CC2)cc1	4.64
O=C(NC(=S)NCCc1ccccc1)c1cccc(Cl)c1	11.3
NC(=O)C1CCN(CC(=O)Nc2ccccc2Sc2ccccc2)CC1	-16.2
Cc1ccc(-n2c(SCC(=O)N3CCOCC3)nnc2-c2cccnc2)cc1	7.05
O=C1CC(N2CCN(c3ccccc3Cl)CC2)C(=O)N1c1cccc(F)c1 (centres unmarked)	11.5
Cc1ccc(COC(=O)CN2C(=O)NC3(CCCC3)C2=O)cc1	15
COc1cc(NC(=O)c2ccccc2)c(OC)cc1Cl	5.79
CC(NC(=O)CN1C(=O)NC2(CCCCCC2)C1=O)c1ccccc1 (centres unmarked)	-1.98

SMILES	hERG current change (%, negative = inhibition) at 1uM [%]
Cc1cc(C)n(NC(=S)NC2CCCCC2)c(=O)c1C#N	14.2
COCC(C)NC(=O)c1cccc(Cl)c1 (centres unmarked)	19.2
O=C(c1ccccc1F)N1CCN(S(=O)(=O)c2ccc3c(c2)OCCO3)CC1	-5.24
Cc1nn(CC(=O)O)c(C)c1C	5.74
O=C(CCc1nnc2ccc(N3CCC4(CC3)OCCO4)nn12)N1CCCCC1	14
Cc1cc(C)n(-c2nc(C)nc(NCc3ccccc3)n2)n1	-61.6
Nn1c(SCC(=O)NC2CCCCC2)nnc1-c1ccccc1F	8.78
O=C(Nc1ccccc1C(=O)Nc1ccc(Cl)cc1)c1cccnc1	9.07
CCOc1ccc(N(CC(=O)Nc2ccc(Br)cc2)S(C)(=O)=O)cc1	10
COCCNS(=O)(=O)c1ccc(C)c(C)c1C	6.58
Cc1cc(=O)oc2cc(OCC3CC(c4ccccc4)=NO3)ccc12 (centres unmarked)	-5.82
S=C(NCCN1CCOCC1)N/N=C/c1ccccc1	7.71
O=C(CSc1ccc(-c2cccnc2)nn1)N1CCCC1	5.56
CC(=O)c1c(C(C)=O)c(C)n(Cc2ccccc2)c1C	3.29
CC(=O)c1ccc2c(c1)OCCOCCOc1ccc(C(C)=O)cc1OCCOCCO2	-84.8
Cc1ccc(C(=O)NNC(=O)CSc2nc(N)cc(N)n2)cc1	8.99
CCC(C(=O)OCC(=O)Nc1cc(C)ccc1OC)c1ccccc1 (centres unmarked)	14.2
Cc1nc2c(S(=O)(=O)c3ccccc3)cnn2c(C)c1C	17.2
O=[N+]([O-])c1ccc2[nH]nc(-c3ccccc3)c2c1	14.6
CCOC(=O)N1CCC(Nc2ccc(N3C(=O)C4CCCCC4C3=O)cc2[N+](=O)[O-])CC1 (centres unmarked)	10.4

SMILES	hERG current change (%, negative = inhibition) at 1uM [%]
CCn1c(SCC(N)=O)nnc1-c1ccc2[nH]c(C)c(C)c2c1	2.32
O=C(CSc1nnc(-c2ccco2)c(-c2ccco2)n1)Nc1ccccc1	-34.1
CCOc1ccc(/C=C/c2c([N+](=O)[O-])c(=O)n(C)c(=O)n2C)cc1	9.27
Cc1ccc(C(=O)N2CCc3ccccc32)cc1[N+](=O)[O-]	2.67
CCCCn1c(O)c(C(CC)=NCCCN(C)C)c(=O)[nH]c1=O	2
Cc1ccc2c(c1)N(CC(=O)O)C(=O)CO2	-4.9
CCN(CC)CCCN1C(=O)C(=O)/C(=C(/O)c2ccc(C)cc2)C1c1ccccn1 (centres unmarked)	7.98
O=C(Nc1nnc(-c2cccs2)s1)C1CC1	6.41
CCOC(=O)COc1ccc(S(=O)(=O)NCC2CCCO2)cc1 (centres unmarked)	7.87
O=C(CSc1nnc(-c2ccco2)n1Cc1ccco1)N1CCOCC1	-1.32
CCO[C@H]1OC(C(=O)NC2CC2)=C[C@@H](c2c[nH]c3ccccc23)[C@@H]1CCCO	14.3
CC(C)(C)C(=O)N1CCN(c2nc3ccc(Br)cc3s2)CC1	15.4
Nc1nnnn1/N=C/c1cccc(Oc2ccccc2)c1	15.1
O=C(Nc1ccccc1C(=O)OC1CCOC1=O)c1ccco1 (centres unmarked)	-8.74
CCCC1(CCC)C(=O)NC(=Nc2ccccc2)NC1=O	11.7
CCN(CC)CCn1c(N)c(S(=O)(=O)c2ccccc2)c2nc3ccccc3nc21	-7.1
CN1C(=O)C2(c3ccccc31)N(C)CC(c1ccccn1)C21SC(=S)N(Cc2ccco2)C1=O (centres unmarked)	4.55
Cc1cc2nc(CCN(Cc3cccnc3)C(=S)Nc3ccccc3)[nH]c2cc1C	-6.23
COc1ccc(CCn2c(O)c(C=NCCCO)c(=O)[nH]c2=O)cc1OC	11.3

Source: article PMC4336329 (PLoS ONE, 2015)
